From PubChem BioAssay AID1346428 (National Center for Advancing Translational Sciences (NCATS), 2018)
Among all 48,000 compounds or so, about 1,200 (2.5%) were called active. Another 2% or so got no clear call; they are omitted.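 How the source made its calls: active means activation of at least 60% and not above a set upper limit (about 1 call in 100 departs from these limits); inconclusive means activation of 40% to 60%, or above that upper limit; inactive means activation under 40%.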 The list shows a part of the results.

Biological target: Probable G-protein coupled receptor 32 (Homo sapiens) (UniProt O75388)
Assay: qHTS for Agonists of Human Resolvin D1 Receptor DRV1; further: 0% is about no effect
Conditions: CHO-K1 GPR32 beta-arrestin PathHunter luminescence, 90 min; at 76.9 µM; active compounds read high; zero percent set by DMSO-only wells
How it was run: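 Beta-arrestin recruitment read-out: luminescence from complemented beta-Gal in CHO-K1 GPR32 PathHunter cells, measured 1 h after detection reagent at ambient temperature following 90 min compound exposure at 37 °C; DMSO served as basal (EC0) control.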

UniProt O75388, sequence (O75388 whole entry, looked up): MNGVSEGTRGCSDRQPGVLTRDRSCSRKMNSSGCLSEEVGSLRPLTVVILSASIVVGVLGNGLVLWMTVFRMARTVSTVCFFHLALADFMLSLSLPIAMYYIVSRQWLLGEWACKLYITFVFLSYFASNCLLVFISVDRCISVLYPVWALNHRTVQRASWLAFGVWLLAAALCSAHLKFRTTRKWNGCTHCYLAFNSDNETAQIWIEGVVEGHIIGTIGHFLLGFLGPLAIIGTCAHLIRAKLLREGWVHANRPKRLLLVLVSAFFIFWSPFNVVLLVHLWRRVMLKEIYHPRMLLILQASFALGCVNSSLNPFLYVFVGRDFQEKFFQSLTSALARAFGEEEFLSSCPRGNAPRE

activation, inactive:
CCOc1ccc(OCC(=O)Nc2c(C(=O)Nc3ccc(C)cc3)oc3ccccc23)cc1 -2.54%, O=S(=O)(Nc1cccc(-c2ccc(N3CCCCC3)nn2)c1)c1ccc(Cl)s1 -6.32%, Fc1ccc(CNc2nc3ccc(Cl)cc3n3nnnc23)cc1 2.15%, COc1cccc(-n2c(=O)c3sc4ccccc4c3n(CC(=O)Nc3cccc(Cl)c3)c2=O)c1 -4.43%, O=c1[nH]c(=O)n([C@H]2C[C@@H](O)[C@@H](CO)O2)cc1C=CBr 4.16%, CCSc1ncc(Cl)c(C(=O)N2CCN(c3ccc(OC)cc3)CC2)n1 1.4%, C=Cc1ccc(Cn2c(=O)n(-c3cccc(C)c3)c(=O)c3c2c2cc(C)ccc2n3C)cc1 10.3%, O=S(=O)(c1cccc(Cl)c1)c1nnn2c1nc(NC1CCCCCC1)c1sccc12 3.97%, CCN(CC)CCCNC(=O)c1ccc2nc(CCc3ccccc3)oc2c1 -12.2%, O=C(Nc1ccc2c(c1)N(C1CCCC1)C(=O)c1ccccc1S2)c1ccc(F)cc1 -5.8%, CCN(CC)c1ccc(NC(=O)C2COc3ccc(OC)cc3C2)c(C)c1 (stereo not drawn) -6.65%, COC(=O)N[C@H](C(=O)N[C@@H](Cc1ccccc1)[C@@H](O)CN(Cc1ccc(-c2ccccn2)cc1)NC(=O)[C@@H](NC(=O)OC)C(C)(C)C)C(C)(C)C -3.75%, Cc1ccc(S(=O)(=O)c2c(C)nn(-c3ccccc3)c2OC(=O)c2ccccc2F)cc1 11%, O=C(NC1CC(=O)N(c2ccc(Cl)cc2)C1)c1ccc(S(=O)(=O)N2CCCC2)cc1 (stereo not drawn) 5.38%, Cc1ccccc1CSc1nnc2[nH]c(=O)cc(C)n12 15.2%, O=C(Cn1cc(S(=O)(=O)Cc2ccc(F)cc2)c2ccccc21)NCc1ccccc1Cl -14.4%, O=C(NCCCc1nc2ccccc2n1Cc1ccc(Cl)cc1)c1ccco1 -16%, CCOc1ccc(NC(=O)CSc2nnc(-c3ccc(C)cc3)c(-c3ccc(C)cc3)n2)cc1 -19.4%, Cc1oc2ncn(CC(C)C)c(=O)c2c1C(=O)NCCCN(Cc1ccccc1)C(C)C -6.15%, CNC[C@H](O)[C@@H](O)[C@H](O)[C@H](O)CO -6.57%, COc1ccc(-n2c(SCc3ccccc3F)nc3c([nH]c4ccccc43)c2=O)cc1 32.5%, Nc1ccc(S(=O)(=O)Nc2cnc3ccccc3n2)cc1 -26.9%, Cc1ccccc1N1CCN(S(=O)(=O)c2nnc(NC(=O)c3ccc(Cl)cc3)s2)CC1 10.6%
